# Assay results reported in the supplement of paper PMC10441789.
# The list shows a part of the results. Antibody binding of pooled human sera (four to six donors per pool; dilution not stated) to peptides of the Trypanosoma cruzi antigen TSSA on microarrays. Quantile-normalised fluorescence in arbitrary units, mean of duplicate arrays; higher = more binding. No active / inactive call. The uninfected pools are read here as the healthy donors of the same country. The strongest signals lie near the top of the scale (about 60,000).
# Tests used:
# Experiment in all cases: antibody binding signal (normalised fluorescence) (arbitrary fluorescence units); higher = stronger serum antibody binding to peptide
# [1] = tested on: pooled sera of chronic Chagas disease patients, Argentina
# Description: (§1)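 Microarray of 15-residue peptides over residues 30-55 of Trypanosoma cruzi TSSAII, each with 1 to 10 substitutions at naturally variable positions, probed with one serum pool per country.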
# [2] = tested on: pooled sera of chronic Chagas disease patients, Bolivia
# Description: as §1
# [3] = tested on: pooled sera of chronic Chagas disease patients, Brazil
# Description: as §1
# [4] = tested on: pooled sera of chronic Chagas disease patients, Colombia
# Description: as §1
# [5] = tested on: pooled sera of chronic Chagas disease patients, Mexico
# Description: as §1
# [6] = tested on: pooled sera of chronic Chagas disease patients, USA
# Description: as §1
# [7] = tested on: pooled sera of uninfected people, Argentina
# Description: as §1
# [8] = tested on: pooled sera of uninfected people, Bolivia
# Description: as §1
# [9] = tested on: pooled sera of uninfected people, Brazil
# Description: as §1
# [10] = tested on: pooled sera of uninfected people, Colombia
# Description: as §1
# [11] = tested on: pooled sera of uninfected people, Mexico
# Description: as §1
# [12] = tested on: pooled sera of uninfected people, USA
# Description: as §1
Sequence,antibody binding signal [1],antibody binding signal [2],antibody binding signal [3],antibody binding signal [4],antibody binding signal [5],antibody binding signal [6],antibody binding signal [7],antibody binding signal [8],antibody binding signal [9],antibody binding signal [10],antibody binding signal [11],antibody binding signal [12]
PPSGTEKKPAAGGTP,41400,5550,35500,4330,8020,6830,1340,1060,2410,367,352,873
PSGKDKKAAAGGTPS,3290,596,2550,9180,6520,4890,127,176,330,119,80.1,150
GTENKPATGGAPSQP,45700,19600,32200,611,2090,5590,503,2330,665,206,365,234
TPPSGTDKKTATGGT,21600,3110,24100,2010,37400,2340,288,209,814,245,307,185
EKKAATGETPSPPGA,1970,1160,14700,296,412,9850,768,921,148,948,375,1760
TDNKTAAGGTPSQPG,1160,518,1020,4660,299,1470,413,338,1190,303,2140,155
GTENKPAAGEAPSPS,46000,5030,25900,568,1630,14300,326,1440,243,121,125,124
PSGKDKKAAAGETPS,2400,605,2270,4600,4510,4640,157,312,85.9,219,97.2,73.5
GTDNKTAAGGTPSQS,1490,294,26000,4830,376,1550,360,710,3090,171,2280,191
TPPSGKDKKPAAGET,16800,2110,5600,408,53400,790,452,601,103,265,145,128
NKAATGGAPSQSGAS,728,377,4190,518,652,666,865,913,240,296,470,1150
KEKKAATGGTPSPPG,313,277,135,428,210,518,135,76.9,202,358,68.4,88.9
KENKAATGGTPSQSG,279,318,314,233,283,206,193,102,160,107,98.3,146
SGTENKTAAGEAPSQ,27700,21200,17600,405,385,9320,326,364,192,304,183,174
DNKAAAGETPSPPGA,258,343,10700,254,265,900,139,308,176,122,330,411
SGKEKKPAAGEAPSP,12200,1120,8870,4990,9750,14400,242,257,107,126,73.9,280
GKENKAATGETPSPS,14700,2070,24900,18600,16500,24600,576,256,114,201,304,2610
GTDKKPATGETPSPS,30800,24700,29500,6610,586,20500,153,419,257,252,2110,1800
GTDKKTATGGAPSPS,810,213,518,3170,576,1160,295,241,98.4,82.8,150,120
KENKTATGETPSQPG,1770,1400,34100,783,249,8070,159,343,233,240,245,244
KDKKTAAGETPSPSG,173,251,161,221,198,927,107,90.2,101,204,82,405
KDNKAATGGAPSQPG,342,356,10500,276,248,693,296,1130,164,142,75.8,112
TENKTATGETPSPSG,20500,1790,1960,237,258,7890,138,220,185,153,301,2550

Sequence,antibody binding signal [1],antibody binding signal [2],antibody binding signal [3],antibody binding signal [4],antibody binding signal [5],antibody binding signal [6],antibody binding signal [7],antibody binding signal [8],antibody binding signal [9],antibody binding signal [10],antibody binding signal [11],antibody binding signal [12]
PSGTDKKPAAGGAPS,4340,678,24100,14100,3680,2240,219,476,219,237,1240,306
GKDKKAATGETPSPS,2400,281,3570,2670,2700,8810,327,113,98.2,187,94.5,793
KKPATGEAPSQSGAS,23800,38300,43600,181,248,31600,1010,724,162,172,534,454
EKKPATGGAPSQSGA,1780,562,1410,1520,1440,1680,572,1440,230,241,193,871
TPPSGTENKPAAGEA,47600,46000,50000,350,7560,29100,9980,1270,2380,552,453,660
GTEKKAATGEAPSPP,22800,23500,29900,1720,2510,25100,583,816,180,608,145,197
KDKKPATGETPSQSG,23700,5410,21900,167,189,18100,221,149,119,107,451,102
SGKDKKAATGETPSP,1270,309,5810,571,573,8500,366,110,94.7,315,79.4,383
KDNKTATGETPSQSG,1110,478,4670,2100,276,6940,516,285,285,334,179,177
GKENKTAAGEAPSPS,3980,509,10600,7860,6100,17900,536,138,142,153,151,251
KDNKTAAGGTPSPPG,960,193,275,3580,235,1360,273,154,339,202,139,157
TENKPAAGGAPSQSG,45900,1150,4900,1070,926,681,265,509,258,138,256,221
TENKAATGETPSQSG,26700,4220,24400,180,199,12900,126,239,174,103,210,131
DKKAAAGGTPSQSGA,667,222,217,4620,381,1470,133,148,2560,150,217,153
TPPSGTENKPATGGA,49600,45800,47000,442,11000,27600,6030,1790,896,942,845,1100
SGTEKKTAAGGAPSQ,514,843,1050,9940,1390,1600,179,414,166,182,176,127
KDNKTATGGAPSPSG,490,233,247,1760,232,356,342,130,153,186,114,138
NKPATGGTPSPSGAS,617,1150,5190,330,687,330,647,1450,737,586,259,1340
KENKAAAGETPSPPG,182,199,9910,214,210,2750,136,164,102,110,132,948
STPPSGKDKKPAAGG,36500,2370,13200,416,52400,4270,583,374,144,171,149,278
GKEKKTATGEAPSQP,13400,4180,28300,4140,5340,15800,194,78.2,125,90.1,104,99.8
GTDNKPATGGAPSQS,3900,17700,42600,2350,1130,3720,275,1310,618,215,517,174
TDNKAAAGEAPSPSG,264,1170,14600,127,146,13200,110,309,126,90.7,88.5,103
